Test results published in the supplement of paper PMC12217912.
Some of the results follow. Sequences were assembled here from the parent chain. Values near 0.05 are background.

B1: TEV protease; numbered along this chain (parent)
chain: MGESLFKGPRDYNPISSSICHLTNESDGHTTSLYGIGFGPFIITNKHLFRRNNGTLVVQSLHGVFKVKDTTTLQQHLVDGRDMIIIRMPKDFPPFPQKLKFREPQREERICLVTTNFQTKSMSSMVSDTSCTFPSGDGIFWKHWIQTKDGQCGSPLVSTRDGFIVGIHSASNFTNTNNYFTSVPKNFMELLTNQEAQQWVSGWRLNADSVLWGGHKVFMVKPEEPFQPVKEATQL

Variants of: B1
Assay: raw area under fraction-flipped curve 0-4 h after induction (AUC4h, not background-subtracted), DNA-recorder readout of cleavage of the substrate (dimensionless); higher = more cleavage of the substrate by the protease variant
Conditions: temperature: 34 °C; time window: 0-4 h after rhamnose induction
Protocol: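 In vivo DNA recorder in E. coli TOP10(DE3) ΔrhaA at 34 °C. Each TEVp single-site mutant (parent TEVp 0) is paired with a single-site variant of the 7-mer TEVs (canonical ENLYFQ|S). The substrate sits between flexible linkers in a Bxb1-sfGFP-TEVs-SsrA fusion, so cleavage stabilises Bxb1 and speeds flipping of a recombination array, read by NGS. The value is the raw area under the fraction-flipped curve over 0-4 h after rhamnose induction (AUC4h), with ≥20 reads per time point. It is not background-subtracted; inactive controls average about 0.047.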
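Also: Bxb1 expression induced with 0.2% (w/v) L-rhamnose at OD600 near 0.5, cultures sampled hourly, flipped fraction per protease–substrate barcode pair counted by paired-end Illumina sequencing.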

Variant | area with substrate ENLYFQC | area with substrate ENLYFQE | area with substrate ENLYFQG | area with substrate ENLYFQH | area with substrate ENLYFQK | area with substrate ENLYFQL | area with substrate ENLYFQM | area with substrate ENLYFQN | area with substrate ENLYFQP | area with substrate ENLYFQS | area with substrate ENLYFQT | area with substrate ENLYFQW | area with substrate ENLYFQY | area with substrate ENLYFQD | area with substrate ENLYFQF | area with substrate ENLYFQI | area with substrate ENLYFQR | area with substrate ENLYFQQ | area with substrate ENLYFQV
T115S | 0.0815 | 0.0658 | 0.102 | 0.104 | 0.0701 | 0.0652 | 0.0735 | 0.0852 | 0.068 | 0.109 | 0.0505 | 0.0603 | 0.103 | – | – | – | – | – | –
T119P | 0.116 | 0.0545 | – | – | 0.0723 | – | 0.0941 | 0.0733 | 0.073 | 0.0961 | 0.0635 | 0.0731 | – | 0.067 | – | – | – | – | –
K120M | 0.112 | – | 0.11 | 0.0712 | 0.063 | 0.0857 | 0.0697 | 0.0607 | 0.066 | 0.0987 | – | 0.0677 | 0.072 | 0.0688 | 0.0758 | 0.0469 | 0.0595 | – | –
S123F | 0.111 | – | 0.144 | 0.085 | 0.0717 | 0.0649 | 0.103 | 0.0856 | – | 0.102 | 0.0697 | 0.0812 | – | 0.0796 | 0.0084 | 0.0671 | 0.0549 | – | –
D128P | 0.129 | – | 0.114 | – | 0.0604 | 0.0634 | – | – | – | 0.121 | 0.0766 | 0.032 | – | – | – | – | – | 0.0763 | –
S130L | 0.0809 | 0.0699 | 0.0844 | 0.0789 | – | 0.0597 | – | 0.0702 | – | 0.0752 | 0.0739 | 0.0676 | 0.0758 | 0.0548 | – | 0.0559 | 0.0635 | – | 0.0636
T132W | 0.0574 | – | – | 0.0525 | 0.0574 | 0.0499 | – | 0.0579 | 0.046 | 0.0594 | 0.0549 | 0.0536 | – | 0.0437 | 0.055 | 0.0366 | 0.0662 | 0.0436 | 0.037
P134K | 0.0038 | – | – | – | – | 0.0448 | 0.106 | 0.0731 | 0.0663 | 0.0941 | – | – | – | – | – | 0.0723 | 0.0575 | 0.054 | 0.0552
P134S | 0.133 | – | 0.0776 | 0.0844 | – | 0.0502 | 0.0699 | 0.0552 | 0.0548 | 0.0938 | 0.0597 | – | – | 0.0739 | – | 0.0578 | 0.0627 | – | –
G138C | 0.117 | – | – | – | – | 0.0783 | – | – | – | 0.092 | 0.0694 | – | – | – | – | – | – | 0.0662 | –
G138D | 0.119 | – | 0.0592 | – | 0.0687 | 0.0571 | – | – | – | 0.0908 | 0.0535 | 0.0562 | – | – | 0.0706 | – | 0.063 | – | –
I139D | 0.0971 | 0.0573 | 0.0942 | 0.0876 | 0.0487 | 0.071 | 0.0801 | 0.0702 | 0.0583 | 0.102 | 0.0498 | – | – | – | 0.0471 | 0.0515 | 0.0563 | – | 0.059
W141V | 0.064 | – | 0.132 | – | – | 0.056 | 0.0538 | 0.061 | – | 0.0679 | 0.0489 | 0.0667 | 0.0297 | 0.0643 | – | 0.106 | 0.0524 | – | –
W141Y | 0.132 | – | – | – | 0.0673 | 0.0458 | 0.0694 | 0.0692 | – | 0.0882 | – | – | – | – | – | – | – | – | –
K142V | 0.147 | – | – | – | 0.0653 | 0.0671 | 0.0942 | 0.0735 | 0.0542 | 0.0991 | 0.0741 | 0.0571 | 0.0786 | 0.0708 | 0.0769 | 0.0648 | 0.0596 | – | –
H143I | 0.0532 | – | 0.0491 | – | 0.0621 | 0.0545 | 0.0705 | – | – | 0.0649 | – | – | – | – | – | – | 0.0573 | – | –

Variant | area with substrate ENLYFQC | area with substrate ENLYFQE | area with substrate ENLYFQG | area with substrate ENLYFQH | area with substrate ENLYFQK | area with substrate ENLYFQL | area with substrate ENLYFQM | area with substrate ENLYFQN | area with substrate ENLYFQP | area with substrate ENLYFQS | area with substrate ENLYFQT | area with substrate ENLYFQW | area with substrate ENLYFQY | area with substrate ENLYFQD | area with substrate ENLYFQF | area with substrate ENLYFQI | area with substrate ENLYFQR | area with substrate ENLYFQQ | area with substrate ENLYFQV
I145H | 0.0888 | – | – | 0.0838 | 0.0525 | 0.063 | 0.121 | – | – | 0.0899 | 0.0879 | 0.0615 | 0.0788 | 0.0784 | – | – | 0.0651 | – | 0.06
D149C | 0.085 | – | – | 0.0675 | 0.0668 | 0.0594 | 0.0608 | 0.0738 | – | 0.104 | 0.0657 | – | 0.0631 | – | – | – | 0.0557 | – | –
D149H | 0.0837 | – | 0.0948 | 0.0639 | – | 0.0544 | – | – | – | 0.0755 | – | 0.0495 | – | – | – | 0.0401 | 0.0368 | – | 0.0416
Q151F | 0.112 | – | 0.089 | – | 0.0394 | 0.0482 | 0.0507 | – | – | 0.0792 | 0.0629 | 0.0447 | 0.0558 | – | – | – | – | – | –
V157Y | 0.0916 | – | 0.0873 | – | 0.0638 | 0.0528 | – | 0.0622 | – | 0.0796 | 0.0567 | 0.05 | – | 0.0686 | 0.0594 | 0.0598 | 0.0435 | 0.0726 | 0.0486
T159F | 0.104 | – | – | – | – | 0.0364 | – | – | – | 0.102 | – | 0.0682 | – | – | – | – | – | – | –
D161P | 0.0491 | – | 0.0443 | – | 0.0565 | – | 0.0399 | – | – | 0.0527 | – | 0.0479 | – | – | – | – | 0.031 | – | 0.0541
I164R | 0.0543 | – | – | 0.0512 | 0.0535 | 0.0238 | – | 0.0296 | – | 0.0545 | 0.0551 | 0.0581 | 0.0548 | 0.0597 | 0.0518 | 0.0377 | 0.0515 | 0.0439 | 0.055
I167H | 0.0794 | – | 0.0869 | 0.062 | – | – | 0.0493 | 0.0488 | – | 0.0667 | 0.0458 | – | 0.0695 | – | 0.0442 | 0.0411 | 0.0527 | – | 0.0656
I167N | 0.0677 | – | 0.0645 | – | 0.059 | 0.047 | 0.0819 | 0.0548 | 0.0543 | 0.0618 | 0.0348 | 0.0589 | 0.045 | 0.0581 | 0.0562 | 0.0562 | 0.061 | – | 0.0521
S171P | 0.0531 | – | 0.0601 | 0.0622 | 0.0543 | 0.0536 | 0.0617 | – | 0.053 | 0.0593 | 0.0422 | – | 0.0633 | – | – | 0.0482 | 0.0619 | 0.0636 | –
N172K | 0.0483 | – | 0.0655 | 0.0947 | 0.0517 | 0.0662 | 0.0529 | 0.053 | 0.0361 | 0.061 | 0.0578 | 0.066 | 0.0437 | – | – | – | – | – | –
N172Y | 0.0534 | – | – | 0.0531 | – | – | – | 0.0687 | – | 0.0601 | 0.0728 | 0.0588 | – | – | – | – | – | – | –
F173Q | 0.0957 | – | 0.09 | 0.062 | – | 0.0599 | – | 0.0273 | – | 0.0822 | – | 0.0522 | – | – | 0.0713 | 0.0681 | 0.0599 | 0.0728 | –
F173W | 0.117 | – | 0.0946 | 0.0818 | – | 0.0571 | – | – | 0.0795 | 0.0996 | 0.0637 | 0.0657 | 0.0616 | 0.0626 | 0.0506 | – | 0.0768 | 0.072 | –
